# Screen size: about 2,000 compounds; about 110 (5.5%) showed an effect of 50% or more. This is one part of the list.
# Biological target: Genome polyprotein (dengue virus type 2) (UniProt P29990)
# [1] = Thailand/16681/1984, Concentration 25.0 uM, Number of replicates 1.0
smiles,measurement,setting,value
O=Cc1ccc(N2CCC(C(=O)N3CCC(c4nnc5n4CCCCC5)CC3)CC2)cc1,inhibition,[1],12.7%
O=Cc1ccc(N2CCC(C(=O)N3CCC(c4noc5ccc(F)cc45)CC3)CC2)cc1,inhibition,[1],9.99%
O=Cc1ccc(N2CCC(C(=O)N3CCN(C(=O)OCc4ccccc4)CC3)CC2)cc1,inhibition,[1],11.5%
CCOc1ccc(CCNC(=O)C2CCN(c3ccc(C=O)cc3)CC2)cc1OC,inhibition,[1],16.8%
Cc1cc(CO)c2cccc(Cc3ccccc3C(=O)N3CC4(CCCOC4)C3)c2n1,inhibition,"Thailand/16681/1984, Concentration 49.95 uM, Number of replicates 2.0, Standard deviation 0.5044936462842475 %",-0.608%
same,inhibition,"Thailand/16681/1984, Concentration 99.9 uM, Number of replicates 2.0, Standard deviation 0.35429534371445953 %",1.95%
NC(=O)c1cccc(NC(=O)[C@@H](NC(=O)OCc2ccccc2)c2ccc(OCc3ccccc3)cc2)c1,inhibition,"Thailand/16681/1984, Concentration 49.5 uM, Number of replicates 2.0, Standard deviation 9.041969593425012 %",3.65%
same,inhibition,"Thailand/16681/1984, Concentration 99.01 uM, Number of replicates 2.0, Standard deviation 1.1271011381219709 %",9.06%
same,inhibition,"Thailand/16681/1984, Concentration 198.0 uM, Number of replicates 2.0, Standard deviation 1.277025907644923 %",16%
Cc1cc(CO)c2cccc(Cc3cccc(C(=O)NCCc4ncc[nH]4)c3)c2n1,inhibition,"Thailand/16681/1984, Concentration 49.95 uM, Number of replicates 2.0, Standard deviation 2.0725920117726813 %",-4.03%
same,inhibition,"Thailand/16681/1984, Concentration 99.9 uM, Number of replicates 2.0, Standard deviation 0.8997522707097182 %",1.59%
Cc1nn(Cc2nnc(-c3ccccc3)o2)cc1C1CCNCC1,inhibition,"Thailand/16681/1984, Concentration 49.5 uM, Number of replicates 2.0, Standard deviation 0.7783572877313132 %",-0.64%
same,inhibition,"Thailand/16681/1984, Concentration 99.01 uM, Number of replicates 2.0, Standard deviation 0.2127849870308208 %",0.045%
same,inhibition,"Thailand/16681/1984, Concentration 198.0 uM, Number of replicates 2.0, Standard deviation 0.7570324627928547 %",0.731%
O=Cc1ccc(N2CCC(C(=O)NCCCSc3ccccc3)CC2)cc1,inhibition,[1],1.55%
O=Cc1ccc(N2CCC(C(=O)Nc3cc(Cl)cc(Cl)c3O)CC2)cc1,inhibition,[1],98.2%
COC(=O)c1csc(Cn2cc(C3CCNCC3)c(C)n2)n1,inhibition,"Thailand/16681/1984, Concentration 49.5 uM, Number of replicates 2.0, Standard deviation 2.0495979556305928 %",-1.05%
same,inhibition,"Thailand/16681/1984, Concentration 99.01 uM, Number of replicates 2.0, Standard deviation 1.2818480023400394 %",-0.667%
same,inhibition,"Thailand/16681/1984, Concentration 198.0 uM, Number of replicates 2.0, Standard deviation 0.9661419864840785 %",0.161%
Cc1cnccc1NC(=O)c1cc(-n2ccnc2)ccn1,inhibition,"Thailand/16681/1984, Concentration 49.5 uM, Number of replicates 2.0, Standard deviation 0.8298151073797565 %",-0.748%
same,inhibition,"Thailand/16681/1984, Concentration 99.01 uM, Number of replicates 2.0, Standard deviation 0.1307306310957575 %",-1.01%
same,inhibition,"Thailand/16681/1984, Concentration 198.0 uM, Number of replicates 2.0, Standard deviation 0.4404046637498242 %",0.113%
O=C(N[C@@H](C(=O)NC1CCNCC1)c1ccc(OCc2ccccc2)cc1)OCc1ccccc1,inhibition,"Thailand/16681/1984, Concentration 49.5 uM, Number of replicates 2.0, Standard deviation 0.04752487067458113 %",-0.225%
same,inhibition,"Thailand/16681/1984, Concentration 99.01 uM, Number of replicates 2.0, Standard deviation 0.6611370067327399 %",-0.49%
same,inhibition,"Thailand/16681/1984, Concentration 198.0 uM, Number of replicates 2.0, Standard deviation 1.22541945186685 %",2.06%
Cc1nc2ccccc2n1C1CCN(C(=O)c2ccc3c(c2)B(O)OC3)CC1,inhibition,"Thailand/16681/1984, Concentration 49.5 uM, Number of replicates 2.0, Standard deviation 0.13633788996849533 %",-0.912%
same,inhibition,"Thailand/16681/1984, Concentration 99.01 uM, Number of replicates 2.0, Standard deviation 0.32476501732804397 %",-0.37%
same,inhibition,"Thailand/16681/1984, Concentration 198.0 uM, Number of replicates 2.0, Standard deviation 1.3153663056794043 %",2.34%
O=Cc1ccc(N2CCC(C(=O)N3CCN(S(=O)(=O)c4cccc(Br)c4)CC3)CC2)cc1,inhibition,[1],-1.79%
CNC(=O)[C@H]1CCCN1S(=O)(=O)c1ccc(Oc2ccccc2Cl)cc1,inhibition,"Thailand/16681/1984, Concentration 49.5 uM, Number of replicates 2.0, Standard deviation 0.43290983719310167 %",-4.62%
same,inhibition,"Thailand/16681/1984, Concentration 99.01 uM, Number of replicates 2.0, Standard deviation 1.120416310773355 %",-4.38%
same,inhibition,"Thailand/16681/1984, Concentration 198.0 uM, Number of replicates 2.0, Standard deviation 0.24124704358981106 %",-3.59%
Cc1cnccc1NC(=O)c1ccccc1-c1nc(C(C)C)no1,inhibition,"Thailand/16681/1984, Concentration 49.5 uM, Number of replicates 2.0, Standard deviation 1.5026989952869583 %",-0.789%
same,inhibition,"Thailand/16681/1984, Concentration 99.01 uM, Number of replicates 2.0, Standard deviation 3.3296993188113557 %",-1.39%
same,inhibition,"Thailand/16681/1984, Concentration 198.0 uM, Number of replicates 2.0, Standard deviation 2.70881841476973 %",-1.05%
CCN(Cc1ccc(F)cc1)C(=O)C1CCN(c2ccc(C=O)cc2)CC1,inhibition,[1],13.8%
O=Cc1ccc(N2CCC(C(=O)Nc3ccc(F)nc3Br)CC2)cc1,inhibition,[1],11.5%
CNC(=O)c1cc(Cl)c(OC)cc1NS(=O)(=O)c1ccc(Oc2ccccc2Cl)cc1,inhibition,"Thailand/16681/1984, Concentration 49.5 uM, Number of replicates 2.0, Standard deviation 1.7443589304782063 %",79.2%
same,inhibition,"Thailand/16681/1984, Concentration 99.01 uM, Number of replicates 2.0, Standard deviation 0.14348540542006383 %",98.5%
same,inhibition,"Thailand/16681/1984, Concentration 198.0 uM, Number of replicates 2.0, Standard deviation 0.05118043543332502 %",99.3%
Cc1cc(Cl)c2c(N)ccc(C)c2n1,inhibition,"Thailand/16681/1984, Concentration 49.95 uM, Number of replicates 2.0, Standard deviation 5.268842944255752 %",34.7%
same,inhibition,"Thailand/16681/1984, Concentration 99.9 uM, Number of replicates 2.0, Standard deviation 0.5758298004935433 %",94.7%
Cc1cc(CO)c2cccc(Cc3cccc(C(=O)Nc4cc(C)[nH]n4)c3)c2n1,inhibition,"Thailand/16681/1984, Concentration 49.95 uM, Number of replicates 2.0, Standard deviation 1.9137700846759278 %",0.711%
same,inhibition,"Thailand/16681/1984, Concentration 99.9 uM, Number of replicates 2.0, Standard deviation 1.69961162141419 %",3.33%
CCCC[C@H](NC(C)=O)C(=O)N[C@H](C(=O)Nc1cccc(C(N)=O)c1)c1ccc(OCc2ccccc2)cc1,inhibition,"Thailand/16681/1984, Concentration 49.5 uM, Number of replicates 2.0, Standard deviation 1.3015902921422546 %",-0.513%
same,inhibition,"Thailand/16681/1984, Concentration 99.01 uM, Number of replicates 2.0, Standard deviation 0.5153915569037094 %",3.33%
same,inhibition,"Thailand/16681/1984, Concentration 198.0 uM, Number of replicates 2.0, Standard deviation 0.5711740910196359 %",8.87%
CC(=O)N[C@@H](CCCN)C(=O)Nc1cccc2c(CO)cc(C)nc12,inhibition,"Thailand/16681/1984, Concentration 99.9 uM, Number of replicates 2.0, Standard deviation 2.7664513641226787 %",9.57%
N#Cc1cc(F)c(NC(=O)C2CCN(c3ccc(C=O)cc3)CC2)cc1F,inhibition,[1],15.7%
Cc1cc(CO)c2cccc(Cc3cccc(C(=O)NCc4c(C)noc4C)c3)c2n1,inhibition,"Thailand/16681/1984, Concentration 49.95 uM, Number of replicates 2.0, Standard deviation 0.7006856245222158 %",1.58%
same,inhibition,"Thailand/16681/1984, Concentration 99.9 uM, Number of replicates 2.0, Standard deviation 0.008623919554905093 %",5.27%
COc1cccc(F)c1CNC(=O)C1CCN(c2ccc(C=O)cc2)CC1,inhibition,[1],13.5%
CCC(=O)Nc1cncc(C(=O)Nc2ccncc2C)c1,inhibition,"Thailand/16681/1984, Concentration 49.5 uM, Number of replicates 2.0, Standard deviation 1.9596666118582906 %",-3.96%
same,inhibition,"Thailand/16681/1984, Concentration 99.01 uM, Number of replicates 2.0, Standard deviation 0.9541367095668413 %",-3.15%
same,inhibition,"Thailand/16681/1984, Concentration 198.0 uM, Number of replicates 2.0, Standard deviation 0.14992561245992247 %",-2.19%
CC(C)Cn1cccc(C(=O)N[C@H]2CCCNC2)c1=O,inhibition,"Thailand/16681/1984, Concentration 49.5 uM, Number of replicates 2.0, Standard deviation 0.9832777149768497 %",-2.91%
same,inhibition,"Thailand/16681/1984, Concentration 99.01 uM, Number of replicates 2.0, Standard deviation 0.4214046747802948 %",-2.03%
same,inhibition,"Thailand/16681/1984, Concentration 198.0 uM, Number of replicates 2.0, Standard deviation 1.2642143615156725 %",-2.78%
